Source: PubChem BioAssay AID360 (National Center for Advancing Translational Sciences (NCATS), 2006)
Out of some 48,000 compounds screened, about 550 (1.1%) were called active. Roughly 4% stayed inconclusive and do not appear here. Rule as the data show it: active = potency below about 15 µM; inconclusive = mostly about 16 µM to 33 µM; inactive = weaker than that. The list shows a part of the results.

Molecular target: Lysosomal acid glucosylceramidase (Homo sapiens) (UniProt P04062)
Test: Glucocerebrosidase;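 also: the screen sought inhibitors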
Conditions: purified enzyme, resorufin glucoside fluorescence (screen aimed at inhibitors), 20 min; series mostly up to 77 µM
How it was run: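 Wild-type enzyme at 0.2 nM final in 50mM citric acid/KH2PO4, 10mM sodium taurocholate, 0.01% tween-20, pH 5.9, with resorufin beta-D-glucopyranoside at 30 uM final. Compounds titrated, 20 min at RT, red fluorescence read; AC50 from titration.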
Potency is read from the fitted curve at half-maximal effect.

Chain of UniProt P04062 (P04062 whole entry, looked up): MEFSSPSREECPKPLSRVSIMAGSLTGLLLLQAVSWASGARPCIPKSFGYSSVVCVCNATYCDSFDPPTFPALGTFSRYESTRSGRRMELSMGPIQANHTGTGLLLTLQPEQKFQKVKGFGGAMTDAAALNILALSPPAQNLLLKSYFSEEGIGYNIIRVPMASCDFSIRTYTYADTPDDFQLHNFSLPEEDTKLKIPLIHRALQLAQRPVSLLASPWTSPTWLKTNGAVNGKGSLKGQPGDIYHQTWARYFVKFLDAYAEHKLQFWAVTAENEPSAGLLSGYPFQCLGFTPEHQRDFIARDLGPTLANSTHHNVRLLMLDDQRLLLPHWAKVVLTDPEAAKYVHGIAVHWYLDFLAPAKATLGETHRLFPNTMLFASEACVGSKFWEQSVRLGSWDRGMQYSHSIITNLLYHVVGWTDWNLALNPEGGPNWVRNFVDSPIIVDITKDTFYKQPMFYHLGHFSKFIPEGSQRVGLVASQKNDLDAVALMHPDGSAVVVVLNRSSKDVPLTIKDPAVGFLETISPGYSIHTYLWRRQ

Potency, inactive:
CN1/C(=C\C(=O)c2cccs2)Sc2ccccc21 > 76.9 µM
Nc1ccnc(C(F)(F)F)c1C(=O)c1ccccc1 > 76.9 µM
Nc1ccc(Sc2nnnn2-c2ccccc2)c(Cl)c1 > 76.9 µM
CN(C)C(=O)N1CCC(C(=O)NCc2ccccc2Cl)CC1 > 76.9 µM
CCC(=O)N1CCN(c2ccc(Cl)cc2NC(=O)c2ccc3c(c2)OCCO3)CC1 > 76.9 µM
Cn1c(=O)c2c(ncn2CCCc2ccccc2)n(C)c1=O > 76.9 µM
Cn1c(SCC(=O)N(C2CCCCC2)C2CCCCC2)nnc1-c1cccs1
CCOC(=O)CCNCC1COc2ccccc2O1 (stereo not drawn) > 76.9 µM
Cc1ccc(NC(=O)COS(=O)c2ccc(C)cc2)cc1 (stereo not drawn) > 76.9 µM
CCOC(=O)N1CCC(NC(=O)Cn2ncc3c4ccccc4n(C)c3c2=O)CC1 > 76.9 µM
COCCCN1C(=O)C(=O)/C(=C(/O)c2ccc(OC(C)C)c(C)c2)C1c1ccncc1 (stereo not drawn) > 76.9 µM
CC1Cc2cc(/C(O)=C3/C(=O)C(=O)N(CCCn4ccnc4)C3c3ccco3)ccc2O1 (stereo not drawn) > 76.9 µM
COC(=O)CCN(C(=O)C1C2CC3CC(C2)CC1C3)c1ccccn1 (stereo not drawn) > 76.9 µM
CCC1Oc2ccccc2N(CC(=O)NCCCN2CCCCC2CC)C1=O (stereo not drawn) > 76.9 µM
CCOc1ccc(N2C(=O)CSC2c2ccncc2)cc1 (stereo not drawn) > 76.9 µM
O=C(NCc1cccnc1)c1cccc(Cl)c1 > 76.9 µM
Cc1cc(C)n(-c2ccc3cccc(NS(C)(=O)=O)c3n2)n1 > 76.9 µM
Cc1ccc(-n2ncc(C#N)c2/N=C/N2CCCCCC2)cc1 > 76.9 µM
COCCCNC(=O)C1C2C=CC3(CN(Cc4ccc(C)cc4)C(=O)C13)O2 (stereo not drawn) > 76.9 µM
CCOc1ccccc1NC(=O)CSc1nnnn1-c1ccc(C(=O)OC)cc1 > 76.9 µM
O=C(NCc1ccc2c(c1)OCO2)c1ccccn1 > 76.9 µM
CCOC(=O)c1ccccc1NC(=O)CC1SC(=NC)N(C)C1=O (stereo not drawn) > 76.9 µM
Cc1nn(-c2ccccc2)c2sc(C(=O)N(Cc3ccco3)C(C)C(=O)NC(C)(C)C)cc12 (stereo not drawn)
CC(=O)c1ccc(OCCCC(=O)n2nnc3ccccc32)cc1 > 76.9 µM
O=C(CSc1nnc(-c2ccco2)o1)NC1CCCCCC1 > 76.9 µM
CCOC(=O)c1c(C)c(C(=O)NCC2CCCO2)c(C)n1CC (stereo not drawn) > 76.9 µM
CCOC(=O)c1nnn(CC(=O)Nc2cccc(F)c2)c1C(=O)OCC > 76.9 µM
C=CCn1c(=O)/c(=C/c2ccc(F)cc2)s/c1=C(\C#N)c1nnc2n1CCCCC2
O=C(Nc1cccc(-c2nc3cccnc3s2)c1)c1ccco1 > 76.9 µM
Cc1ccc(C(C(=O)NCCc2ccccc2)N(C(=O)c2csnn2)C2CC2)o1 (stereo not drawn) > 76.9 µM
COc1ccccc1C(=O)Nc1ccc(C(=O)O)cc1 > 76.9 µM
C=CCOc1ccc(C(=O)N(Cc2ccc(N(C)C)cc2)C2CCS(=O)(=O)C2)cc1 (stereo not drawn) > 76.9 µM
COc1ccc(CCNC(=O)CCNS(=O)(=O)c2ccc3c(c2)CCN3C(C)=O)cc1OC > 76.9 µM
Cc1cc(=O)[nH]c(SCC(=O)N2CCN(C(c3ccccc3)c3ccccc3)CC2)n1 > 76.9 µM
CC1C2C(c3ccccc3)N(C)C(=O)N(C)C2N(C)C(=O)N1C (stereo not drawn) > 76.9 µM
CC1(C)CC(=O)C(C(=O)CCCCC(=O)C2C(=O)CC(C)(C)CC2=O)C(=O)C1 > 76.9 µM
Cc1cc(=O)[nH]c(SCC(=O)N2CCCCCC2)n1 > 76.9 µM
CCOC(=O)c1c(NC(=O)CCC(=O)NCc2ccco2)sc2c1CCCC2 > 76.9 µM
CCOC(=O)C1CCN(S(=O)(=O)c2nc3nc(C)cc(C)n3n2)CC1 > 76.9 µM
C=CCn1c(SCC(O)Cn2c3ccccc3c3ccccc32)nnc1-c1ccco1 (stereo not drawn) > 76.9 µM
Cc1cccn2c(=O)c3cc(C(=O)NC(C)C)c(=N)n(Cc4ccncc4)c3nc12 > 76.9 µM
CCC(c1nnnn1Cc1ccc2c(c1)OCO2)N1CCN(c2ccc(F)cc2)CC1 (stereo not drawn) > 76.9 µM
Cc1ccc2c(c1)N(CCC(=O)NCCCOC(C)C)C(=O)C(C)O2 (stereo not drawn) > 76.9 µM
Cc1ccc2c(C)nc(NC3=NCN(Cc4ccccc4)CN3)nc2c1 > 76.9 µM
COc1ccccc1-n1nnnc1SCc1ccccc1 > 76.9 µM
COCCn1c(SCc2ccccc2Cl)nc2c1c(=O)[nH]c(=O)n2C > 76.9 µM
COc1cc2[nH]c(=S)n(CC3CCCO3)c(=O)c2cc1OC (stereo not drawn) > 76.9 µM
O=C(NCC1CCCO1)c1csc2c1CCCC2 (stereo not drawn) > 76.9 µM
O=C(NCSc1ccncn1)c1ccccc1 > 76.9 µM
CCSCc1nnc(SCC(=O)c2ccc(OC)cc2)n1C > 76.9 µM
C=CCNc1nc(NCCN2CCOCC2)nc(OC)n1 > 76.9 µM
N#Cc1ccccc1Sc1ccccc1C(=O)OCc1nnc(-c2ccccc2)o1 > 76.9 µM
CCOC(=O)c1c(C)[nH]c(C(=O)Cn2c(=O)oc3ccccc32)c1C > 76.9 µM
Cc1cccc(C(=O)O)c1NC(=O)c1ccc(F)cc1 > 76.9 µM
Cc1cc(C)c(NC(=O)CSc2nnc(-c3ccncc3)n2Cc2ccco2)c(Cl)c1 > 76.9 µM
Nc1c(C2=NCCO2)nnn1Cc1ccccc1 > 76.9 µM
Cc1cc(NC(=O)CCC(=O)N(CC(=O)NC2CCCC2)Cc2ccccc2Cl)no1 > 76.9 µM
CCOC(=O)c1ccc(CNC(=O)Cn2nnc(-c3ccc(C)cc3)n2)o1 > 76.9 µM
